This passage reports binding results from publication PMC3897721, “Structure of Utp21 Tandem WD Domain Provides Insight into the Organization of the UTPB Complex Involved in Ribosome Synthesis” (PLoS ONE, 2014).

These are yes or no findings as the source states them, for the method shown. Sequences can lack the tags named with a protein.

Experiment [1] concerns the target T1, His6-Smt3-Utp18 183–594 (yeast (S. cerevisiae)) (UniProt P40362).
T1 sequence: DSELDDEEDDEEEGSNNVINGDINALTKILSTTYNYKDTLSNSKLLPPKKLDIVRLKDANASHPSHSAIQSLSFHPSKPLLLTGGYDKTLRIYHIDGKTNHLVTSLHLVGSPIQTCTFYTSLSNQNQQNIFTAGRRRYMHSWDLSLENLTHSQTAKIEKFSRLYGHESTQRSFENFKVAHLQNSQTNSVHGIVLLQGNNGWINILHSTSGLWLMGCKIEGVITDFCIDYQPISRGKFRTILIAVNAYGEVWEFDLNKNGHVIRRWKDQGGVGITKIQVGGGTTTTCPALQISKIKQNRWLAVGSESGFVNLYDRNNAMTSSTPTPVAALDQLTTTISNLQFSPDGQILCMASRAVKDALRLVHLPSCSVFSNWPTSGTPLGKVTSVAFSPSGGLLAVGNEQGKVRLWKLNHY
Nature of the experiment: condition: 0.95 nmol Utp18 fragment, 1.9 nmol Utp21 1–684; pull-down; His6-Smt3-tagged Utp18 fragments (0.95 nmol) incubated with Utp21 1–684 (1.9 nmol) 2 h at 4°C, bound to Ni Sepharose beads; washed with 25 mM Tris-HCl pH 7.6, 500 mM NaCl, 10 mM imidazole; SDS-PAGE, Coomassie; both purified.

Experiment [2] concerns the target T2, His6-Smt3-Utp18 1–100 (yeast (S. cerevisiae)) (UniProt P40362).
T2 sequence: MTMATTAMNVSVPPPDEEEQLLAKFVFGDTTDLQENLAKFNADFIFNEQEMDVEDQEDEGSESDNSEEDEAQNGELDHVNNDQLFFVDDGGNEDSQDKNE
The experiment is described as above.

B1: Utp21 1–684 (tandem WD domain, GST-tag cleaved) (domain or fragment, UniProt Q06078 1-684)
chain: MSIDLKKRKVEEDVRSRGKNSKIFSPFRIIGNVSNGVPFATGTLGSTFYIVTCVGKTFQIYDANTLHLLFVSEKETPSSIVALSAHFHYVYAAYENKVGIYKRGIEEHLLELETDANVEHLCIFGDYLCASTDDNSIFIYKKSDPQDKYPSEFYTKLTVTEIQGGEIVSLQHLATYLNKLTVVTKSNVLLFNVRTGKLVFTSNEFPDQITTAEPAPVLDIIALGTVTGEVIMFNMRKGKRIRTIKIPQSRISSLSFRTDGSSHLSVGTSSGDLIFYDLDRRSRIHVLKNIHRESYGGVTQATFLNGQPIIVTSGGDNSLKEYVFDPSLSQGSGDVVVQPPRYLRSRGGHSQPPSYIAFADSQSHFMLSASKDRSLWSFSLRKDAQSQEMSQRLHKKQDGGRVGGSTIKSKFPEIVALAIENARIGEWENIITAHKDEKFARTWDMRNKRVGRWTFDTTDDGFVKSVAMSQCGNFGFIGSSNGSITIYNMQSGILRKKYKLHKRAVTGISLDGMNRKMVSCGLDGIVGFYDFNKSTLLGKLKLDAPITAMVYHRSSDLFALALDDLSIVVIDAVTQRVVRQLWGHSNRITAFDFSPEGRWIVSASLDSTIRTWDLPTGGCIDGIIVDNVATNVKFSPNGDLLATTHVTGNGICIWTNRAQFKTVSTRTIDESEFARMALPSTSVR
For the molecule B1, the binding entry in experiment [1] and in experiment [2] was “no binding” in each case.
